The results in this text go back to publication PMC5836133.

The other results are listed elsewhere or left out. At the low end of the ranking the order means little.

This experiment deals with T1, GST-NbGlk1(82-244).
T1 sequence: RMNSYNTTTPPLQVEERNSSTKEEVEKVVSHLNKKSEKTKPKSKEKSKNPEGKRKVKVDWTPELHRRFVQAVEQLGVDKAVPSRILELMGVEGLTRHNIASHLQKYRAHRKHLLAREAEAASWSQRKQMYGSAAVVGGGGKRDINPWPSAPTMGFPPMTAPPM
Briefly: protein-binding microarray.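 Also: rank-based score ranging −0.5 to +0.5 with E above 0.45 taken as significant binding.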 The settings on record: NbGlk1 is a Golden2-like transcription factor of Nicotiana benthamiana; high values mean tight binding; most listed sequences are background and not binding sites; double strand, one strand shown.
In turn, ATCAAGGA gave a binding signal of 0.165 E-score.
In turn, CACCATTC had a binding signal of -0.0672 E-score.
With AGCGGCAA, the binding signal is -0.152 E-score.
Next, AGAAGCAG: -0.112 E-score; AAAAGCAG: -0.0258 E-score.
Next, ACGACACC: -0.000925 E-score; ATAGTATA: 0.0818 E-score.
Next, AGTGAGCA: 0.0865 E-score; AACTGCCT: -0.129 E-score.
The sequence CAGCGGAG yielded a binding signal of -0.133 E-score.
AGGACGTC gave a binding signal of -0.201 E-score.
Sequence AAATCTCC yielded a binding signal of 0.439 E-score.
Next, CAAATCAG: 0.268 E-score; AAGTGCGA: -0.0111 E-score; ATACGTTA: 0.277 E-score.
Next, ATTGGAGA: 0.141 E-score; ACACGAGG: -0.0474 E-score.
Next, ATCGCGGA: 0.32 E-score; AACCACCG: -0.132 E-score.
ACGACGTG gave a binding signal of -0.0548 E-score.
On to CAGATCTA, for which the binding signal stood at 0.249 E-score.
Next, ACTGACAA: 0.0717 E-score.
Next, CAAGATAC: 0.263 E-score.
Next, AGCAGGAG: -0.272 E-score; ATCGACCG: -0.0411 E-score.
As to ATATCCTC, the binding signal is 0.402 E-score.
Sequence ACGTGTAG showed a binding signal of -0.0273 E-score.
Next, ACTAACCG: -0.0863 E-score; AAATCTGG: 0.466 E-score.
Next, AGAACAGG: -0.149 E-score; ACTGGATC: 0.107 E-score.
Next, AGTGGATA: 0.257 E-score; ATCCACTA: 0.247 E-score; ACGTATCA: 0.163 E-score.
Regarding AATTTGTA, the binding signal amounted to 0.228 E-score.
Next, AGTTCTCC: -0.204 E-score; ACAAATGT: -0.0114 E-score; AAATCGGC: 0.302 E-score.
On to AGCGGTAT, for which the binding signal was found to be 0.0651 E-score.
For the sequence ACAAAATA, the binding signal was 0.293 E-score.
Next, ATTGAAAT: 0.244 E-score; CACCACGA: -0.0136 E-score; CAATCTCC: 0.349 E-score.
Next, ATTGCCAA: 0.134 E-score.
Next, ATAAGCCA: -0.0929 E-score; CAGAAATA: 0.175 E-score; AGTTACAG: -0.11 E-score.
In turn, AGCCTCGA showed a binding signal of -0.0796 E-score.
Next, AGCGTTCG: -0.106 E-score.
The sequence ATTTAAGC displayed a binding signal of 0.0139 E-score.
Next, CAAATCCG: 0.389 E-score.
Next, ACCCTCAG: -0.15 E-score; ACAAGGAA: -0.00047 E-score; AGTTCAGA: 0.0608 E-score.
Next, ACGTAGCT: -0.126 E-score.
In the case of AGTGAACG, the binding signal is -0.0314 E-score.
Next, ACGCACGG: -0.115 E-score.
In turn, AAGGGATG returned a binding signal of -0.0767 E-score.
Next, AACATATG: -0.0893 E-score; AATCTGTA: 0.414 E-score.
Next, ATATCCAG: 0.395 E-score.
Take AAGCTTTA: the binding signal was -0.156 E-score.
Next, ATTCTGTC: 0.335 E-score; AAGGGGAT: 0.203 E-score.
Next, ACTGAACC: -0.0808 E-score.
Next, CAAGTGCG: 0.0152 E-score; AGAGATAT: 0.391 E-score.
With AGGTCAGG, the binding signal is -0.235 E-score.
In turn, CACAGTAG yielded a binding signal of -0.15 E-score.
Next, AATCGCCC: 0.163 E-score; AACTGTGT: -0.12 E-score.
Next, AACGATCA: 0.071 E-score; AGAGGGTA: -0.0038 E-score; ATCGTCAT: 0.175 E-score.
Next, CACGAGGA: -0.0571 E-score; AGTAGGAA: -0.0223 E-score; AAGCTTAT: -0.043 E-score.
Sequence ATTTGCGA returned a binding signal of 0.294 E-score.
Next, AAAAAGAG: -0.0797 E-score; CAAGGATA: 0.229 E-score.
Sequence AGAATCTA yielded a binding signal of 0.48 E-score.
Next, AGGTGCAG: -0.109 E-score; CAAGCGTG: -0.257 E-score; AACTTCCA: -0.267 E-score.
Next, ATGAGTGG: -0.0823 E-score; ATCGGTGC: -0.00623 E-score.
ACGCGGCG yielded a binding signal of -0.204 E-score.
The sequence AGGGAGGA came in with a binding signal of -0.0992 E-score.
Next, AACAGTCT: -0.199 E-score.
Next, AAGCCACA: -0.233 E-score; AGCCGTTC: -0.0961 E-score.
For AGAGAGTA, the binding signal was -0.0337 E-score.
Next, AGCGTCGC: -0.116 E-score; ACGACTGG: -0.172 E-score.
Next, AAATTTCT: 0.177 E-score; AGGTACGA: -0.113 E-score; AAAGGAAA: -0.00944 E-score.
Next, ATACCCAG: 0.185 E-score; ACGGCACG: -0.176 E-score.
The sequence ACGGCAAC yielded a binding signal of -0.113 E-score.
Next, ACATGCAT: 0.0266 E-score; ATCCCCAA: 0.276 E-score; ACAGAAGG: -0.233 E-score.
Next, ACTTAGTC: -0.171 E-score.
ATAATCAG came in with a binding signal of 0.222 E-score.
Next, ATACATAT: 0.204 E-score; AACTATAG: 0.0186 E-score; AGGTGGTG: -0.14 E-score.
Next, AGTGGCGC: -0.291 E-score.
Next, CAGATTAA: -0.027 E-score; AGTTGTCC: -0.236 E-score.
With ATGGTAGA, the binding signal was found to be 0.136 E-score.
Next, ACTATTAT: 0.105 E-score; ACGCATCG: -0.0749 E-score; ATATGGAG: 0.0522 E-score.
Next, ACATTTAT: 0.114 E-score.
Next, ATATCCGA: 0.402 E-score; ATAACCTG: -0.0659 E-score; AAACAAAG: -0.0268 E-score.
As to AGACCGAG, the binding signal is -0.146 E-score.
Next, ATGCTGAA: 0.014 E-score; CAGCATAG: 0.00686 E-score; ATGTTTGG: -0.108 E-score.
Next, AGTGCGCA: 0.16 E-score; AGGCGTTG: -0.131 E-score; ATGGACCA: -0.231 E-score.
As for ACGTATAC, the binding signal was found to be 0.0202 E-score.
Next, CAATTAAG: 0.0791 E-score; ATAGCGCA: 0.0829 E-score; ATCTGTAA: 0.331 E-score.
Next, AACACAAT: 0.213 E-score; ACATCGGA: 0.12 E-score; AGGTAACT: 0.00979 E-score.
Next, ACCGGATG: 0.0134 E-score; AGTCAGTA: -0.0436 E-score.
Turning to ATGACTGC, the binding signal is -0.125 E-score.
Next, ACACAACT: 0.0134 E-score.
In turn, ACTGGAAG had a binding signal of -0.0706 E-score.
Next, AACTATCC: 0.00349 E-score; AACGATTG: 0.0543 E-score.
For the sequence AGGCCACA, the binding signal was -0.122 E-score.
Next, CACGAGCC: -0.272 E-score.
Next, ATGACGAC: -0.135 E-score; ACTCCCGC: -0.0162 E-score.
Next, ATAAAAAA: 0.217 E-score; CACAAATC: 0.274 E-score.
In turn, CACACCAA had a binding signal of -0.14 E-score.
Next, ACGGAGCT: -0.283 E-score; CACTCTAA: -0.00764 E-score; ATAGGAGG: -0.198 E-score.
ATTGGAAA came in with a binding signal of 0.0951 E-score.
Next, AAGGAAGA: -0.0623 E-score; ATCGATTC: 0.347 E-score; AATCGCTG: 0.234 E-score.
AGTGACCC: the binding signal was -0.196 E-score.
Next, ACTAGCAG: -0.0801 E-score; AGTGTGAA: -0.0487 E-score; AGTGTGAC: -0.0876 E-score.
Regarding ATGTTGAA, the binding signal turned out to be 0.0521 E-score.
Next, AGAAGAAT: 0.211 E-score; AGCGGCTG: -0.246 E-score.
Next, AGGTTGAG: -0.15 E-score; AGCACGGC: -0.254 E-score; AGCGTGTA: -0.0986 E-score.
Next, AAATTTAA: 0.181 E-score; AAGGGTTA: -0.155 E-score; AAAACATT: -0.0401 E-score.
In turn, AGAGGACT yielded a binding signal of -0.169 E-score.
Next, AAATGAGC: -0.206 E-score.
Next, ATACCGAT: 0.276 E-score.
Next, AGCGGGAT: 0.16 E-score; AACTAGCA: 0.0358 E-score.
